Over roughly 33,000 sequences, “E-score (-0.5 to 0.5)” has its median near -0.032; the highest 2% begin near 0.36. The list shows a part of the results.
Each sequence was assayed against T1, Sko1 (UniProt Q02100) (assay: PBM E-score (8-mer binding enrichment) (E-score (-0.5 to 0.5)); higher = stronger / more preferred TF binding; most listed sequences are background and not binding sites). Details: protein concentration: 200 nM; construct: GST-full length.
T1 sequence: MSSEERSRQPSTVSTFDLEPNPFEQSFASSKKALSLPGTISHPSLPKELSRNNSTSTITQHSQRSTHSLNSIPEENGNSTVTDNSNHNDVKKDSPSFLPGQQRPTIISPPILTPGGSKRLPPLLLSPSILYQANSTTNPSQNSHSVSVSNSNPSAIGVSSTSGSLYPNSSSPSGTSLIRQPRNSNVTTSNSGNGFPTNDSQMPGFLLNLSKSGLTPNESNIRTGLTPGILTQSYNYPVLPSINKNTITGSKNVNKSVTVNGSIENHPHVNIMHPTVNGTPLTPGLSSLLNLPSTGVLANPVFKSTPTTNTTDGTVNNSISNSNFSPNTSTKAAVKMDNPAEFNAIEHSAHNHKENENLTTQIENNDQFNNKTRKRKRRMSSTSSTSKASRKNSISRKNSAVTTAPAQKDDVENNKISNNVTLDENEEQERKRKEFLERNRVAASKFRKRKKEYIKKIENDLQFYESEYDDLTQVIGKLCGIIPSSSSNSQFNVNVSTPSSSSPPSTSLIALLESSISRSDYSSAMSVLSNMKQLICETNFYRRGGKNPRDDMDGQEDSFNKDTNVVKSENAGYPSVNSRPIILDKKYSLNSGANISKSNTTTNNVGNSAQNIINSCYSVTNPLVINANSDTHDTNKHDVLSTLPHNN
Procedure: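 Universal 'all 10-mer' protein binding microarrays (Agilent AMADID 015681) probed with GST-tagged S. cerevisiae TFs (full-length or DBD) made by in vitro transcription/translation (PURExpress), about 100-200 nM. Bound TF was detected with fluorescent anti-GST. Each ungapped 8-mer (which stands for itself and its reverse complement) is scored by the PBM enrichment score (E-score), a modified Wilcoxon-Mann-Whitney statistic from -0.5 to +0.5, computed with the Universal PBM Analysis Suite. Scale: above 0.35 generally sequence-specific binding.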

Row | Sequence | PBM E-score
1 | CGGAGGGA | -0.377
2 | CGGCCAAC | -0.315
3 | ATCCCTAA | -0.165
4 | AAAGCCGC | -0.101
5 | GCAGCGGC | -0.178
6 | GAGTGTGA | 0.136
7 | CACACGTA | 0.45
8 | CCGTTGCG | 0.00759
9 | TGCAACCA | -0.0883
10 | GTGGTGAA | -0.00249
11 | CCTGGACA | -0.271
12 | CCAGGCAA | -0.152
13 | CTGCACCA | -0.305
14 | CCTAGTAC | 0.00576
15 | AGCGAGAC | -0.175
16 | CTTTTGTA | 0.139
17 | ACGACGGG | 0.0518
18 | CTCATGCC | -0.102
19 | CAGTAACC | -0.0392
20 | ATTCCCCA | -0.19
21 | GGTTATCA | -0.052
22 | CTTCTGGC | -0.363
23 | AACTTTGT | 0.00157
24 | CACGGGCA | -0.278
25 | ATCACTTC | 0.111

Row | Sequence | PBM E-score
26 | CCCTTAAC | -0.252
27 | AGACCCTC | -0.264
28 | CGTGGAAG | 0.124
29 | CGCCTTAA | 0.00536
30 | GGGGGACA | -0.317
31 | GGACCTAA | -0.0906
32 | GGTGTGGA | -0.149
33 | CATTCACG | 0.215
34 | AGAGGTCA | -0.151
35 | CGCCGTGA | -0.0474
36 | CACGGGGC | -0.169
37 | ATATAATA | 0.207
38 | GGGTAACA | -0.0351
39 | CACGCGTC | 0.291
40 | CGCCATGC | 0.104
41 | CAGAATGA | 0.0723
42 | GAAATGAA | 0.126
43 | AACCATTG | 0.15
44 | ATCCTTGC | -0.0696
45 | CCAAAGCA | -0.00167
46 | AATTACCC | 0.0055
47 | CCAGAACC | -0.222
48 | CCCTAGCA | -0.189
49 | GCTCTGCC | -0.293
50 | AGCTTGGG | -0.13

Row | Sequence | PBM E-score
51 | GGTTTGCA | -0.105
52 | CGACGAAG | 0.00357
53 | CTATAGAC | -0.0761
54 | GTGTAGAA | 0.0421
55 | ACTACCTA | 0.0522
56 | CATTGAGA | 0.034
57 | GGATTCCC | -0.405
58 | GGGTTAAC | -0.0829
59 | CAGCGTCA | 0.269
60 | CCAGGTCA | -0.26
61 | AGCAAACA | 0.00884
62 | AATCTGAT | 0.0711
63 | TGGCTCAA | -0.135
64 | CCTCTTAC | -0.0892
65 | CGTTCAAA | -0.0617
66 | CATTGCGA | 0.101
67 | AGTTCCTG | -0.15
68 | ACCAGTTA | 0.158
69 | CGCTGTCA | -0.194
70 | AGTGTCTC | -0.206
71 | CCGTTTAA | -0.0451
72 | AATCCTCG | -0.0997
73 | GATGTTGC | 0.0584
74 | ACAGACTC | -0.0949
75 | CACCCACG | 0.178

Row | Sequence | PBM E-score
76 | ATATGGCA | 0.0018
77 | GCTGCCAA | -0.131
78 | CACACAGG | -0.101
79 | AAATCGTA | 0.285
80 | GAATGGTA | 0.0925
81 | ATGGCAAC | 0.0982
82 | GTGTGTGA | 0.116
83 | GTTCTTCA | 0.0119
84 | CACTGCAC | -0.016
85 | AGTTCTTG | 0.081
86 | CGGAATAA | -0.128
87 | ATGGTAAA | 0.0877
88 | AAGATCGT | 0.0795
89 | CTTTTTAC | 0.152
90 | CAGGGTCG | -0.241
91 | AAAGATCC | -0.0977
92 | AGGTTCCG | -0.138
93 | CTCTTTTA | -0.0323
94 | TGCACAAA | 0.0452
95 | AGCCATAC | -0.073
96 | CCCGGATC | -0.251
97 | AAGGGGGG | -0.5
98 | ACTAGGGC | -0.211
99 | ATCCAAAG | 0.0661
100 | CGCCGCCG | -0.179

Row | Sequence | PBM E-score
101 | GTCCTAAC | 0.055
102 | CACAGCGC | -0.197
103 | CAATCGTA | 0.285
104 | CGGTCTAG | -0.108
105 | GGAGGGCA | -0.175
106 | CAATTTCA | 0.0986
107 | AAAATACG | 0.343
108 | GACTCTAC | -0.108
109 | ATGGATGC | -0.134
110 | CAGTACTG | 0.115
111 | ATTAACCG | -0.0199
112 | TACTGGAA | 0.0304
113 | AAGTTAGG | -0.0273
114 | ACTCCATC | -0.145
115 | AGTGTCAG | -0.267
116 | CTTAGGGA | -0.272
117 | ACTCGTCA | 0.404
118 | TTCGACAA | 0.0777
119 | ACTTCCCC | -0.0883
120 | CTAGCACA | -0.291
121 | ACGTGCAT | 0.396
122 | CCCCAACG | 0.0631
123 | CGAGTAAC | 0.172
124 | GTGTATCA | 0.153
125 | GGACCCTA | -0.273

Row | Sequence | PBM E-score
126 | GCTGCGGA | -0.103
127 | CAGCACAC | -0.136
128 | ACAACAAG | 0.0637
129 | ACATGCCC | -0.199
130 | AGGTCTAA | -0.0802
131 | ACAATCGC | -0.0302
132 | ACCACGGT | -0.183
133 | CCCGTAGA | -0.331
134 | AAATATGT | 0.276
135 | CAAGTCCG | -0.236
136 | AAAATACT | 0.213
137 | ATATTCAG | 0.00522
138 | CCCACCAG | -0.148
139 | ATGAGTCA | 0.125
140 | AATCAGGG | -0.33
141 | ACGGGACG | -0.129
142 | GTCAGCGA | -0.0508
143 | ATGAATTG | 0.0345
144 | GCACCCCA | -0.0797
145 | TGTGAACA | -0.0972
146 | CATCGTAC | 0.136
147 | GTCGACAC | 0.0499
148 | TACGTAAA | 0.484
149 | GTGTTGGA | 0.0951
150 | CACCTTAA | -0.0499

Row | Sequence | PBM E-score
151 | CGGGTCAA | -0.142
152 | CCAGCCCC | -0.186
153 | TGGTCAAA | 0.154
154 | AATTATGG | 0.122
155 | CAATAGAC | 0.0384
156 | ATCCCTAC | 0.106
157 | GAGAGGGA | -0.189
158 | CCGTTAGG | -0.227
159 | AGGCCAAT | -0.0526
160 | AGCTAACA | -0.0839
161 | ACATCCCA | -0.191
162 | GACGCCCA | -0.0504
163 | AACTAAGG | -0.0496
164 | CGACCCTC | -0.344
165 | GGCTTTGA | -0.0738
166 | AAGGCGTG | -0.111
167 | GAGAAGCA | -0.214
168 | CTAATAAA | 0.177
169 | AGGCGAAC | 0.0973
170 | CAAGCTAG | -0.118
171 | CGCGACGA | 0.125
172 | AGGTCGCC | -0.245
173 | AGAGTAGA | -0.0272
174 | CAAACACA | 0.226
175 | CACGTTCC | 0.00159

Row | Sequence | PBM E-score
176 | ATGAAGCG | -0.28
177 | ACCGGTTC | -0.276
178 | CATCTAGC | -0.0817
179 | TGGGTCAA | -0.0732
180 | CTTTATTA | 0.214
181 | CATCCGCA | 0.153
182 | CGACGACG | 0.19
183 | AAACTTAT | 0.256
184 | AGGCAAGA | -0.0215
185 | ATCTCTTC | -0.00254
186 | ACTCGCGC | -0.122
187 | CGAAAATA | 0.191
188 | GAGAGTTA | -0.0408
189 | AGATCAGC | -0.183
190 | CCATTACC | -0.148
191 | AATTTATG | 0.156
192 | CACGGCCG | -0.197
193 | GATTTTGA | 0.213
194 | CATACGCA | 0.392
195 | AGGACGAC | -0.114
196 | GTTGATGA | 0.303
197 | ACTCATGA | 0.218
198 | ACCTCACC | -0.185
199 | TATATAAA | 0.246
200 | CATTCTCA | 0.128

Row | Sequence | PBM E-score
201 | CCAATGGG | -0.408
202 | TATAATAA | 0.16
203 | AGACCTTA | 0.0871
204 | TTTCCAAA | 0.0643
205 | AGATTACG | 0.459
206 | ATCTATCG | 0.003
207 | ATTTTCTG | 0.00918
208 | AAGCCCCA | -0.3
209 | ACGGAGCT | -0.193
210 | AGCAAGTC | -0.22
211 | ATAACTGC | 0.0695
212 | CGCCCCTA | -0.0907
213 | AACAGTAG | 0.104
214 | CGGACTGA | -0.0335
215 | GTAACACA | 0.16
216 | CGTACTGA | 0.254
217 | ACGACGTC | 0.367
218 | CAAGAGAA | 0.0556
219 | GGACTAAA | -0.116

Source: the supplement of paper PMC3334620
